# From PubChem BioAssay (NCATS)
# This list was built around the results that the source calls inconclusive (neither active nor inactive); the mix of calls is not that of the screen. For part of these data: Potencies beside an inconclusive call are fits to weak or partial responses and may not hold up. Activity calls are given as the source filed them. The call rests on the fitted dose curve; in most records, active means well fitted curve in the direction sought with a large enough effect; inconclusive means small, poorly fitted or top-dose-only effect, or another doubt; inactive means no such curve, though single readings can be large; an effect the other way counts as inactive or inconclusive.
# How the values were obtained:
# [1] = P-glycoprotein substrates identified in KB-8-5-11 adenocarcinoma cell line, qHTS therapeutic library screen (AID 1346987); settings: activity change, negative = cytotoxicity: at 44.5 µM (top of the series); further: nearly all actives have a fitted effect of over 65% in size; further: potency means the concentration at half of the fitted maximal effect
# Summary of the method: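 KB-8-5-11, a colchicine-selected P-gp-overexpressing KB-3-1 subline, was grown without colchicine for the assay. Cells were seeded at 500 cells/well, dosed in concentration-response and incubated 72 h at 37 degree C, 5% CO2. Viability was read by CellTiter-Glo luminescence.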
# [2] = qHTS Assay for Identifying Gametocytocidal Compounds (AID 743244); further: potency means the concentration at half of the fitted maximal effect; settings: P. falciparum 3D7 stage III-V gametocytes, alamarBlue, 72 h; max response: stronger effect = lower value
# Summary of the method: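 Fluorescence at Ex 525/Em 598 nm, recorded 24 h after alamarBlue addition, reports residual metabolic activity of 3D7 gametocytes (stages III–V) following 72 h compound exposure at 37 °C, 5% CO2.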
# [3] = qHTS of pediatric cancer cell lines to identify multiple opportunities for drug repurposing: Primary screen for A673 cells (AID 1347092); settings: A673 Ewing sarcoma viability, CellTiter-Glo ATP luminescence, 48 h; activity change, negative = cytotoxic: at 46 µM (top of the series); further: nearly all actives have a fitted effect of over 45% in size
# Summary of the method: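 Titration-based qHTS on A673 cells: MIPE compounds spanned 11 points (0.78 nM to 46 µM final), NPC compounds 8 points (0.59 nM to 46 µM final). Viability after 48 h was measured by ATP luminescence.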
# [4] = qHTS of pediatric cancer cell lines to identify multiple opportunities for drug repurposing: Primary screen for SK-N-MC cells (AID 1347093); settings: SK-N-MC viability, CellTiter-Glo luminescence, 48 h; activity change, negative = cytotoxic: at 46 µM (top of the series)
# Summary of the method: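 Metabolically active cells were quantified by ATP-dependent luminescence (CellTiter-Glo, 15 min at room temperature) following 48 h treatment. Cells had been plated at 500-1,000 per well and settled for 5 h beforehand.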
# [5] = qHTS of pediatric cancer cell lines to identify multiple opportunities for drug repurposing: Primary screen for NB1643 cells (AID 1347099); settings: NB1643 neuroblastoma viability, CellTiter-Glo luminescence, 48 h; activity change, negative = cytotoxic: at 46 µM (top of the series); further: nearly all actives have a fitted effect of over 50% in size
# Summary of the method: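 Following a 5-hour attachment period, cells at 500-1,000/well received compounds and were cultured for 48 hours. CellTiter-Glo was added and luminescence read to estimate viable, metabolically active cells.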
# [6] = qHTS of pediatric cancer cell lines to identify multiple opportunities for drug repurposing: Primary screen for OHS-50 cells (AID 1347103); settings: OHS-50 osteosarcoma viability, CellTiter-Glo luminescence, 48 h; activity change, negative = cytotoxic: at 57.3 µM (top of the series); further: nearly all actives have a fitted effect of over 40% in size
# Summary of the method: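 Cells (500-1,000/well) rested 5 h, then received compounds for 48 h; metabolically active cells were measured by CellTiter-Glo luminescence. Final concentrations spanned up to 46 µM (MIPE, 11-point) or 0.59 nM-46 µM (NPC, 8-point) in primary screens, 11-point in follow-ups.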
# [7] = system: Zika virus NS2B-NS3 protease; assay: Primary screen GU AMC qHTS for Zika virus inhibitors (AID 1347154); further: nearly all actives have a fitted effect of over 70% in size
# Summary of the method: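 Unlinked Zika NS2B hydrophilic domain/NS3 protease domain noncovalent complex (25 nM final) in 10 mM Tris-HCl pH 8.0, 0.01% Tween 20, with AMC peptide substrate. Fluorescence (ex 340, em 450 nm) change over 15 min, room temperature; percent inhibition fitted to 4-parameter Hill equation.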
# [8] = Primary qHTS for small molecule stabilizers of the endoplasmic reticulum resident proteome: Secreted ER Calcium Modulated Protein (SERCaMP) assay (AID 1508630); settings: SH-SY5Y GLuc-SERCaMP (Gaussia luciferase released on ER calcium loss) secretion, thapsigargin, luminescence; activity change, negative = inhibition: at 38.4 µM (top of the series) unless noted; further: potency means the concentration at half of the fitted maximal effect
# Summary of the method: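 GLuc-SERCaMP-expressing SH-SY5Y cells, pretreated 16 h with compound, are challenged with thapsigargin to empty ER calcium stores; after 4 h, coelenterazine is added directly to the medium and luminescence is imaged.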
# [9] = Primary qHTS for inhibitors of nuclear receptor binding SET domain protein 2 (NSD2) in an RCH-ACV wild type WT cells (2C) (AID 1645877); settings: activity change, negative = cell killing: at 44.9 µM (top of the series) unless noted; further: nearly all actives have a fitted effect of over 70% in size; further: potency means the concentration at half of the fitted maximal effect
# [10] = molecular target: Glutathione peroxidase 1 (Homo sapiens) (UniProt P07203); assay: Primary qHTS Assay for Inhibitors of Recombinant Selenoprotein Glutathione Peroxidase 1 (GPX1) (AID 1845191); further: potency means the concentration at half of the fitted maximal effect; nearly all actives have a fitted effect of over 65% in size
# Sequence of UniProt P07203 (P07203 whole entry, looked up): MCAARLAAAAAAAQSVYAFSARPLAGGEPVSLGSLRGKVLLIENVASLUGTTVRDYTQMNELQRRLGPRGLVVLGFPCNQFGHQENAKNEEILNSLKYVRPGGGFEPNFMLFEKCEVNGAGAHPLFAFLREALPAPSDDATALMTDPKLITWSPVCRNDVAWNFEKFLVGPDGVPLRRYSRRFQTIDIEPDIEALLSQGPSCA
# Summary of the method: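 Recombinant GPX1 (10 nM final) was preincubated with compound for 30 min at room temperature, then reacted with 1 mM GSH, 0.5 mM CHP, 0.5 mM NADPH and 100 nM glutathione reductase; NADPH fluorescence (340/450 nm) was read at 0 and 15 min.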
# [11] = molecular target: Phospholipid hydroperoxide glutathione peroxidase GPX4 (Homo sapiens) (UniProt P36969); assay: Primary qHTS Assay for Inhibitors of Recombinant Selenoprotein Glutathione Peroxidase 4 (GPX4) (AID 1845192); settings: activity change, negative = inhibition: at 50 µM (top of the series) unless noted; further: potency means the concentration at half of the fitted maximal effect; nearly all actives have a fitted effect of over 65% in size
# Sequence of UniProt P36969 (P36969 whole entry, looked up): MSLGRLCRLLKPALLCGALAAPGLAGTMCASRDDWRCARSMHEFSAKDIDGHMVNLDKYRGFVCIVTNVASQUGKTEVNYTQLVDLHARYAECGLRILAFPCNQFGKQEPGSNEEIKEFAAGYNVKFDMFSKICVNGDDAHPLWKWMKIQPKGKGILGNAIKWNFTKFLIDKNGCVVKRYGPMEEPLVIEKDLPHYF
# Summary of the method: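 GR-coupled readout: 100 nM GR, 1 mM GSH, 0.5 mM NADPH; NADPH fluorescence (ex 340/em 450 nm) read at t=0 and after 15 min RT. GPX4 200 nM, preincubated 30 min with compound; substrate 0.5 mM CHP.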
# [12] = system: Zika virus NS2B-NS3 protease (unlinked complex); assay: Primary screen GU Rhodamine qHTS for Zika virus inhibitors: Unlinked NS2B-NS3 protease assay (AID 1347159); settings: Recombinant ZIKV NS2B-NS3 protease, Rhodamine110 substrate fluorescence; activity change, negative = inhibition: at 107 µM (top of the series); further: potency means the concentration at half of the fitted maximal effect; nearly all actives have a fitted effect of over 60% in size
# Summary of the method: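 A qHTS format was used, with compound concentrations ranging up to 114 microM. Each compound was preincubated with 25 nM NS2B-NS3 protease, and the substrate was then added at 1.5 microM. Curves were fitted with a 4-parameter Hill model.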
# [13] = Primary qHTS for inhibitors of nuclear receptor binding SET domain protein 2 (NSD2) in an isogenic RCH-ACV NSD2 p.E1099K mutant (9B) (AID 1645876); settings: activity change, negative = viability loss: at 44.9 µM (top of the series) unless noted; further: potency means the concentration at half of the fitted maximal effect; nearly all actives have a fitted effect of over 70% in size
# [14] = system: Zika virus NS2B-NS3 protease (linked construct); assay: Primary screen NINDS Rhodamine qHTS for Zika virus inhibitors (AID 1347160); further: potency means the concentration at half of the fitted maximal effect; nearly all actives have a fitted effect of over 55% in size
# Summary of the method: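 Kinetic fluorescence (Ex 480 nm, Em 540 nm) over 15 min with 1.5 microM Rhodamine110 peptide and 25 nM linked protease.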
# [15] = Primary redox qHTS assay for identification of artifact compounds. (AID 1845223); further: potency means the concentration at half of the fitted maximal effect
# Summary of the method: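 Amplex Red (25 uM) and HRP (250 mU/mL) in HBSS, with compounds for 15 min, then 250 uM DTT for 30 min, room temperature, dark. Fluorescence 525/598 nm read; normalized to DMSO and 10 uM DA3003; Hill fit.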
# Tags describe the fitted curve by direction and shape.
smiles,measurement,setting,value
Clc1ccc2ncc(-c3cccc(NC4CCNCC4)n3)n2c1,Potency,[1],active: 16.4 µM
CCN(CC)CCNC(=O)c1c(C)[nH]c(/C=C2\C(=O)Nc3ccc(Cl)cc32)c1C,Potency,[1],active: 18.4 µM
Clc1cc(Cl)c2c(c1)N=C1CCCCCN1C2,Potency,[1],"inconclusive: 29.1 µM [inhibitor, single point]"
O=C(O)C(S)C(S)C(=O)O (stereo not given),Potency,[2],"inconclusive: 35.5 µM [inhibitor, single point]"
same,Potency,[1],"inconclusive: 8.2 µM [inhibitor, partial curve, poor fit]"
same,Potency,[3],inactive
same,Potency,[4],inactive
same,Potency,[5],inactive
same,Potency,[6],inactive
same,Potency,[7],inactive
same,Potency,[8],"inconclusive: 35.5 µM [inhibitor, partial curve, poor fit]"
same,Potency,[9],inactive
same,Potency,[10],active: 7.18 µM
same,Potency,[11],"inconclusive: 32.1 µM [inhibitor, single point]"
CC(C)=CCc1c(O)cc2oc3cc(C)cc(O)c3c2c1C,Potency,[1],inactive
same,Potency,[12],active: 20 µM
same,Potency,[13],"inconclusive: 29 µM [inhibitor, single point]"
same,Potency,[9],"inconclusive: 25.8 µM [inhibitor, single point]"
CC1CCC2(C=O)C(CO)=CCCC2C1(C)CC(=O)O (stereo not given),Potency,[1],inactive
same,Potency,[12],active: 11.2 µM
same,Potency,[14],active: 12.6 µM
same,Potency,[15],"inconclusive: 26.7 µM [activator, single point]"
CC(=O)OC1C=C(C(=O)O)C2(CO)CCC(C)C(C)(CCc3ccoc3)C2C1 (stereo not given),Potency,[1],inactive
same,Potency,[12],"inconclusive: 8.91 µM [inhibitor, full curve, poor fit]"
same,Potency,[14],"inconclusive: 12.6 µM [inhibitor, single point]"
C/C=C/C1=CC2=C(CO1)C(=O)[C@](C)(O)[C@H](OC(=O)c1c(O)cc(OC)c(O)c1C)C2,Potency,[1],inactive
same,Potency,[12],"inconclusive: 6.31 µM [inhibitor, full curve]"
same,Potency,[14],"inconclusive: 10 µM [inhibitor, partial curve, poor fit]"
same,Potency,[13],"inconclusive: 14.2 µM [inhibitor, single point]"
same,Potency,[9],"inconclusive: 14.2 µM [inhibitor, single point]"
